# Measurements as given in PubChem BioAssay AID1346428 (National Center for Advancing Translational Sciences (NCATS), 2018).
# The campaign covered roughly 48,000 compounds. About 1,200 (2.5%) were called active. Another 2% or so got no clear call; they are omitted.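 Rule for the calls: active = activation of at least 60% and not above a set upper limit (about 1 call in 100 departs from these limits); inconclusive = activation of 40% to 60%, or above that upper limit; inactive = activation under 40%.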 The list shows a part of the results.
# Target: Probable G-protein coupled receptor 32 (Homo sapiens) (UniProt O75388)
# Assay: qHTS for Agonists of Human Resolvin D1 Receptor DRV1; note: 0% is about no effect
# Conditions: CHO-K1 GPR32 beta-arrestin PathHunter luminescence, 90 min; at 76.9 µM; hits give high values; zero percent set by DMSO-only wells
# Outline: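 Agonism was scored as beta-arrestin recruitment to ProLink-fused GPR32 in stably transfected CHO-K1 cells, giving a chemiluminescent beta-Gal signal; compounds were incubated 90 min at 37 °C.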
# UniProt O75388, sequence (O75388 whole entry, looked up): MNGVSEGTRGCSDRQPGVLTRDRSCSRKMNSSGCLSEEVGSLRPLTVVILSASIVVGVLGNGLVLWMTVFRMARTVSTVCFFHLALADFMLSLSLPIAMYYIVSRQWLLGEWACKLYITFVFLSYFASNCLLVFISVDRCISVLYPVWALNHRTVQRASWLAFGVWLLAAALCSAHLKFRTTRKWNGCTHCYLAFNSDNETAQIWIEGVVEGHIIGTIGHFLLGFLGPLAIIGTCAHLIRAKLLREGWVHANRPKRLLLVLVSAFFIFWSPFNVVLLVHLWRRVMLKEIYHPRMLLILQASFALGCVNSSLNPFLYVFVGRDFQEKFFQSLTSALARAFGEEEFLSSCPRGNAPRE
row,Compound,activation
1,CC(C)OCCCNC(=O)CCCn1c(SCC(=O)c2ccc(Br)cc2)nc2c(sc3ccccc32)c1=O,inactive: -12.1%
2,Cc1cc(C)c(NC(=O)Cn2c(=O)n(CCCCC(=O)NCc3ccccc3Cl)c(=O)c3ccccc32)c(C)c1,inactive: -4.27%
3,COc1cc(CN(CC2CCCO2)C(=O)c2ccccc2F)cc(OC)c1OC (stereo not given),inactive: -2.88%
4,COc1cccc(C(c2sc3nc(-c4ccco4)nn3c2O)N2CCCC2)c1 (stereo not given),inactive: 28.2%
5,COc1ccccc1Cn1ccn(CC(=O)Nc2c(C)cc(C)cc2C)c(=O)c1=O,inactive: -9.06%
6,CC(C)C(=O)NC1CC(=O)N(c2ccc3c(c2)OCCO3)C1 (stereo not given),inactive: -2.9%
7,Cc1nnc(N2CCN(c3ccc(Cl)cc3)CC2)c2c1nnn2Cc1ccc(F)cc1,inactive: 5.71%
8,CC1CCCCN1C(=O)c1ccc2c(c1)N(Cc1ccc(Cl)cc1)C(=O)c1ccccc1S2=O (stereo not given),inactive: -18.9%
9,COc1cc(OC)cc(C(=O)NCCc2csc(-c3cccc(C)c3)n2)c1,inactive: 4.8%
10,CCc1ccc(NC(=O)C(=O)NCCc2sc(-c3ccc(OC)c(OC)c3)nc2C)cc1,inactive: -7.22%
11,Cc1ccc(-n2nc(C)c3c(C)cc(=O)n(CC(=O)Nc4ccc(C(C)C)cc4)c32)cc1,inactive: -7.64%
12,CN(C1CCCCC1)S(=O)(=O)c1ccc(F)c(C(=O)Nc2ccc(C(F)(F)F)cc2)c1,inactive: -21.7%
13,COc1ccc(NC(=O)c2c(NCc3cccs3)sc3c2CCCCC3)cc1,inactive: 2.14%
14,Cc1c(C(=O)Nc2cccc(F)c2)sc2nc(-c3cc4ccccc4oc3=O)[nH]c(=O)c12,inactive: -5.44%
15,O=C(NCc1ccccc1Cl)c1ccc2c(c1)N(Cc1ccccc1)C(=O)c1ccccc1S2,inactive: -21.2%
16,CCOC(=O)c1[nH]c2ccccc2c1NC(=O)c1c(F)cccc1F,inactive: -16.3%
17,CCOC(=O)c1sc2ncn(CC(=O)Nc3cccc(C)c3)c(=O)c2c1C,inactive: 2.39%
18,COc1cccc(OCCCn2c(-c3ccc(Cl)cc3)nc3ccccc3c2=O)c1,inactive: 2.34%
19,CCc1cccc(NC(=O)c2cc(-c3ccccc3)n[nH]2)c1,inactive: -0.275%
20,O=C(Nc1cccc(Cl)c1)C1CCN(c2nc3ccccc3nc2C(F)(F)F)CC1,inactive: -14.7%
21,O=C(c1ccc2c(c1)CCN2S(=O)(=O)c1ccc(Cl)cc1)N1CCN(c2ccccc2F)CC1,inactive: -8.97%
22,COc1ccc(Nc2ncc(C(=O)N3CCN(c4ccc(OC)cc4)CC3)c3ccccc23)cc1,inactive: 45.7%

row,Compound,activation
1,CCCCNC(=O)c1cnc2sc(N3CCCCC3)nn2c1=O,inactive: 10.6%
2,Cc1ccccc1Cn1c(=O)n(Cc2ccco2)c(=O)c2oc3ccccc3c21,inactive: -18.5%
3,Cc1c(F)cccc1NS(=O)(=O)c1cccs1,inactive: -7.21%
4,Cc1cc(OC(C)C(=O)N2CCN(CCc3ccccn3)CC2)ccc1Cl (stereo not given),inactive: 39.3%
5,Cc1nc2c(c(SCC(=O)Nc3ccccc3C(F)(F)F)n1)CCC2,inactive: -4.43%
6,CN(C)c1ccc(CN2CCc3nc(N4CCN(c5ccccn5)CC4)ncc3C2)cc1,inactive: -2.71%
7,CCOc1ccccc1N1CC(c2nc3ccccc3n2CCCOc2ccccc2)CC1=O (stereo not given),inactive: -1.9%
8,CCOc1ccccc1C(N)=O,inactive: -64.4%
9,CCC(CC)C(=O)Nc1ccc(OCc2cc(=O)n3ccc(C)cc3n2)cc1,inactive: -6.63%
10,CCOC(=O)C1CCN(C(=O)c2nn(-c3ccc(C)cc3)c(=O)c3c2c2ccccc2n3C)CC1,inactive: -3.19%
11,CC(C)N(Cc1ccccc1)C(=O)c1cc2ccc3cccnc3c2[nH]1,inactive: 11.7%
12,Cc1ccc(C(=O)Nc2ccc(C(=O)O)cc2)cc1S(=O)(=O)Nc1ccccc1,inactive: -13.1%
13,COc1cccc2c1cc1c(=O)n(CC(=O)N3CCCCC3)nc(C)n12,inactive: -7.35%
14,CCC(C)NS(=O)(=O)c1ccc(N2CCCCS2(=O)=O)cc1 (stereo not given),inactive: 0.983%
15,COc1ccc(C)cc1NC(=O)C1CCCN(S(=O)(=O)c2ccc3c(c2)CCCN3C(C)=O)C1 (stereo not given),inactive: -10.1%
16,Fc1cccc(NCc2ccccc2-c2nnc(-c3ccccc3Cl)o2)c1,inactive: -13.6%
17,NC(=O)C1CCN(c2ncnc3c2cnn3-c2ccccc2)CC1,inactive: 4.98%
18,O=c1c2oc3ccccc3c2n(Cc2ccc(Cl)cc2)c(=O)n1Cc1ccc2c(c1)OCO2,inactive: -18.6%
19,Cc1ccc(-n2c3c(c(=O)[nH]c2=O)C(NS(=O)(=O)c2ccc(Cl)cc2)(C(F)(F)F)C(=O)N3)cc1 (stereo not given),inactive: 0.244%
20,CCC(CC)C(=O)Nc1nnc(SCc2cc(=O)c3ccccc3[nH]2)s1,active: 99%
21,COCCNC(=O)CSc1nc2cc3c(cc2c(=O)n1CCCC(=O)NCCc1ccc(OC)c(OC)c1)OCO3,inactive: -15.1%
22,Cc1ccc(Cl)cc1N1CCN(C2(c3ccccc3)C(=O)c3ccccc3C2=O)CC1,inactive: -22.1%

row,Compound,activation
1,COc1cccc(NC(=O)Cn2c(=O)n(-c3cccc(OC)c3)c(=O)c3sc4ccccc4c32)c1,inactive: 4.33%
2,CCCCNC(=O)CCCN1C(=O)CCn2nc(-c3cccn3C)cc21,inactive: -14.5%
3,CCOCCCNC(=O)CN1C(=O)c2cccnc2Sc2ccccc21,inactive: -4.71%
4,CCC(C)(C)NC(=O)C1CCC(CNS(=O)(=O)c2ccc3c(c2)CC(C)N3C(C)=O)CC1 (stereo not given),inactive: 12%
5,CCN(CC)CCn1c(=O)c(Cc2ccc(OC)cc2)nc2ccccc21,inactive: -13.6%
6,COc1ccc2c(CNCc3ccco3)c(C(=O)O)n(Cc3ccc(F)cc3Cl)c2c1,inactive: -21.5%
7,Fc1ccccc1N1CCN(c2nnc(C(F)(F)F)c3nnn(Cc4ccccc4)c23)CC1,inactive: -0.964%
8,O=C(Cn1c(SCCOc2ccccc2Cl)nc2ccccc21)N1CCOCC1,inactive: -3.71%
9,CCc1ccc(NC(=O)CSc2nc(-c3ccccc3)no2)cc1,inactive: 30.5%
10,COc1ccc(CCNc2ncnc3c2nnn3C)cc1OC,inactive: 6.77%
11,CN(C)S(=O)(=O)N(CC(=O)Nc1ccc(Br)cc1F)c1ccccc1,inactive: 28.7%
12,Cc1cc(C)cc(NC(=O)c2sc3nc[nH]c(=O)c3c2C)c1,inactive: -2.12%
13,CCOC(=O)Cn1c(=O)n(CC2CCCO2)c2nc(-c3ccccc3Cl)nc(C(N)=O)c21 (stereo not given),inactive: -13.3%
14,CCOc1ccc(N(CC)C(=O)c2noc3c2COc2ccc(C)cc2-3)cc1,inactive: -12%
15,COc1ccccc1C(=O)Nc1c(C(=O)c2ccccc2)oc2ccccc12,inactive: -8.14%
16,O=c1c(N2CCc3ccccc3C2)csc2ccc(F)cc12,inactive: -22.3%
17,CC1=C(C(=O)Nc2ccccc2C)C(c2cccs2)n2nc(SCc3cc(C)ccc3C)nc2N1 (stereo not given),inactive: -3.61%
18,CCOC(=O)c1ccc(CN(Cc2ccc(OC)cc2)S(=O)(=O)c2cccc(C(F)(F)F)c2)cc1,inactive: -7.14%
19,O=C(CCCn1c(=O)c2cccn2c2cccnc21)Nc1ccccc1C(F)(F)F,inactive: -9.03%
20,CCOc1ccccc1NC(=O)C1=C(C)Nc2ncnn2C1c1sccc1C (stereo not given),inactive: -6.05%
21,Cc1ccc(CNC(=O)c2c(-c3ccc(Br)cc3)noc2C)o1,inactive: -19.1%
22,CCn1c2c(c(=O)n3ncc(C(=O)Nc4ccc(C(=O)OC)cc4)c13)CN(Cc1ccc(OC)cc1)CC2,inactive: -1.25%

row,Compound,activation
1,COc1ccc(C)cc1NC(=O)c1ccc2nc(Cc3ccccc3)oc2c1,inactive: -24.2%
2,COc1ccc(CCNC(=O)c2c(O)nc3c(C)cccn3c2=O)cc1OC,inactive: -1.21%
3,Cc1c(C(=O)NCc2ccccc2)oc2ccc(S(=O)(=O)N3CCC(C)CC3)cc12,inactive: -7.15%
4,Cc1ccc(NC(=O)C(=O)NCC(c2cccnc2)N2CCN(C)CC2)cc1 (stereo not given),inactive: -3.01%
5,O=C(NCCc1ccc(Cl)cc1)C(=O)NCC(c1ccco1)S(=O)(=O)c1ccccc1 (stereo not given),inactive: 12.5%
6,CCn1c(CN2CCCCC2)nc2cc(NC(=O)COc3ccccc3C(C)(C)C)ccc21,inactive: 9.08%
7,Cc1coc2c1c(C)cc1oc(=O)c(CC(=O)NCCc3ccc(Cl)cc3)c(C)c12,inactive: -20.7%
8,COc1ccc(N2CCN(C(=O)c3cc(-c4ccc(C)c(F)c4)on3)CC2)cc1,inactive: 5.2%
9,Cc1c(C(=O)NCCc2ccc(Cl)cc2)cccc1-n1cnc2cccnc21,inactive: -3.69%
10,COc1ccc(N2CCN(C(=O)CSc3nc4ccccc4nc3Cc3ccc(Cl)cc3)CC2)cc1,inactive: -21.2%
11,COc1ccc(NC(=O)c2c(N)c(C(=O)c3ccc(OC)cc3)n3ccccc23)cc1,inactive: 8.94%
12,CCCn1c(/C=C/c2ccccc2)nc2ccccc21,inactive: 2.43%
13,CCn1c2ccccc2c2cc(CN3CCN(Cc4ccc(OC)c(OC)c4)CC3)ccc21,inactive: -22.4%
14,CCOc1ccc(CC(=O)NCCS(=O)(=O)N2CCN(c3ccc(OC)cc3)CC2)cc1,inactive: -14.1%
15,COc1ccc(C(C(=O)Nc2ccc(C(C)C)cc2)N(C)C(=O)Cc2cccs2)cc1 (stereo not given),inactive: -26.4%
16,O=C(Nc1ccc(OC(F)(F)F)cc1)C1CCCN(S(=O)(=O)c2ccc(Br)s2)C1 (stereo not given),inactive: -10.6%
17,O=C(Cc1csc2ccccc12)NCc1ccc(F)cc1,inactive: -18.7%
18,Cc1ccccc1Nc1nnc(-c2ccc(C)c(S(=O)(=O)N3CCN(C)CC3)c2)c2ccccc12,inactive: 7.83%
19,COc1ccc(S(=O)(=O)NC(C)C)cc1-n1cnnn1,inactive: -2.91%
